Experimental data published in patent US10299477B2 (priority 2015, dated 2019).

What was measured:
Botrytis cinerea = test: Test Example B: Gray mold on tomato; type: in vivo; settings: for Test B (control value class, gray mold on tomato): in vivo; for Test B (control value class): Gray mold on tomato, control value=100{1-(n/3)}
Alternaia brassicicola = test: Test Example C: Alternaria sooty spot on cabbage; type: in vivo; settings: for Test C (control value class, Alternaria sooty spot on cabbage): in vivo; for Test C (control value class): Alternaria sooty spot on cabbage, control value=100{1-(n/3)}
[1] = system: Blumeria graminis f sp. hordei; test: Test Example D: Powdery mildew on barley; type: in vivo; settings: for Test D (control value class, powdery mildew on barley): in vivo; for Test D (control value class): Powdery mildew on barley, control value=100{1-(n/3)}
Puccinia recondita = test: Test Example E: Brown rust on wheat; type: in vivo; settings: for Test E (control value class, brown rust on wheat): in vivo; for Test E (control value class): Brown rust on wheat, control value=100{1-(n/3)}
Plasmopara viticola = test: Test Example G: Downy mildew on vine; type: in vivo; settings: evaluated 7-10 days after inoculation; for Test G (control value class, downy mildew on vine): 250 ppm, sprayed 2.5 ml/pot before inoculation; for Test G (control value class): Downy mildew on vine, 250 ppm spray, 2.5 ml/pot
[2] = system: Colletotrichum orbiculare; settings: for Test H (control value class, anthracnose on cucumber): 250 ppm, sprayed 2.5 ml/pot before inoculation, evaluated 6-10 days after inoculation; for Test H (control value class): in vivo

| Compound | Test B (control value class, gray mold on tomato) (Botrytis cinerea) | Test C (control value class, Alternaria sooty spot on cabbage) (Alternaia brassicicola) | Test D (control value class, powdery mildew on barley) [1] | Test E (control value class, brown rust on wheat) (Puccinia recondita) | Test G (control value class, downy mildew on vine) (Plasmopara viticola) | Test H (control value class, anthracnose on cucumber) [2] | Test B (control value class) (Botrytis cinerea) | Test C (control value class) (Alternaia brassicicola) | Test D (control value class) [1] | Test E (control value class) (Puccinia recondita) | Test G (control value class) (Plasmopara viticola) | Test H (control value class) [2] |
| --- | --- | --- | --- | --- | --- | --- | --- | --- | --- | --- | --- | --- |
| COc1cc(F)c(-c2c(-c3cccc(F)c3F)cc(Br)c(=O)n2C)c(F)c1 [Compound 563] | H (H shows more than 50% of control values) | H (H shows more than 50% of control values) | H (H shows more than 50% of control values) | H (H shows more than 50% of control values) | L (L shows 50% or less of control values) | H (H shows more than 50% of control values) |  |  |  |  |  |  |
| Cn1c(-c2c(F)cc(F)cc2F)c(-c2cc(F)cc(F)c2Cl)ccc1=O [Compound 586] | H (H shows more than 50% of control values) | H (H shows more than 50% of control values) | H (H shows more than 50% of control values) | H (H shows more than 50% of control values) | L (L shows 50% or less of control values) | H (H shows more than 50% of control values) |  |  |  |  |  |  |
| CCn1c(-c2c(F)cccc2F)c(-c2ccc(F)cc2F)ccc1=O [Compound 629] | H (H shows more than 50% of control values) | H (H shows more than 50% of control values) | H (H shows more than 50% of control values) | H (H shows more than 50% of control values) | H (H shows more than 50% of control values) | H (H shows more than 50% of control values) |  |  |  |  |  |  |
| Cn1c(-c2c(F)cccc2F)c(-c2ccc(F)cc2F)ccc1=O [Compound 631] | H (H shows more than 50% of control values) | H (H shows more than 50% of control values) | H (H shows more than 50% of control values) | H (H shows more than 50% of control values) | L (L shows 50% or less of control values) | H (H shows more than 50% of control values) |  |  |  |  |  |  |
| CCn1c(-c2c(F)cc(OC)cc2F)c(-c2cccc(OC)c2Cl)cc(Br)c1=O [Compound 642] | H (H shows more than 50% of control values) | H (H shows more than 50% of control values) | H (H shows more than 50% of control values) | H (H shows more than 50% of control values) | H (H shows more than 50% of control values) | H (H shows more than 50% of control values) |  |  |  |  |  |  |
| O=c1c(Cl)cc(-c2ccc(F)cc2F)c(-c2c(F)cccc2F)n1CC(F)F [Compound 648] | H (H shows more than 50% of control values) | H (H shows more than 50% of control values) | H (H shows more than 50% of control values) | H (H shows more than 50% of control values) | L (L shows 50% or less of control values) | H (H shows more than 50% of control values) |  |  |  |  |  |  |
| CCn1c(-c2c(F)cc(F)cc2F)c(-c2cccc(F)c2C)cc(Cl)c1=O [Compound 675] | H (H shows more than 50% of control values) | H (H shows more than 50% of control values) | H (H shows more than 50% of control values) | H (H shows more than 50% of control values) | H (H shows more than 50% of control values) | H (H shows more than 50% of control values) |  |  |  |  |  |  |
| CCn1c(-c2c(F)cc(F)cc2F)c(-c2cc(F)cc(F)c2Cl)cc(Br)c1=O [Compound 688] | H (H shows more than 50% of control values) | H (H shows more than 50% of control values) | H (H shows more than 50% of control values) | H (H shows more than 50% of control values) | L (L shows 50% or less of control values) | H (H shows more than 50% of control values) |  |  |  |  |  |  |
| CCOc1cc(F)c(-c2c(-c3cccc(F)c3C)cc(Cl)c(=O)n2CC)c(F)c1 [Compound 700] | H (H shows more than 50% of control values) | H (H shows more than 50% of control values) | H (H shows more than 50% of control values) | H (H shows more than 50% of control values) | H (H shows more than 50% of control values) | H (H shows more than 50% of control values) |  |  |  |  |  |  |
| CCn1c(-c2c(F)cc(C)cc2F)c(-c2cc(F)ccc2Cl)cc(Br)c1=O [Compound 709] | H (H shows more than 50% of control values) | L (L shows 50% or less of control values) | L (L shows 50% or less of control values) | L (L shows 50% or less of control values) | L (L shows 50% or less of control values) | L (L shows 50% or less of control values) |  |  |  |  |  |  |
| CCn1c(-c2c(F)cc(OC)cc2F)c(-c2ccc(OC)cc2Cl)cc(C)c1=O [Compound 751] |  |  |  |  |  |  | H (H shows more than 50% of control values) | H (H shows more than 50% of control values) | H (H shows more than 50% of control values) | H (H shows more than 50% of control values) | L (L shows 50% or less of control values) | H (key: H shows more than 50% of control values; L shows 50% or less of control values) |
| COc1ccc(-c2cc(Cl)c(=O)n(C)c2-c2c(F)cc(F)cc2F)c(Cl)c1 [Compound 766] |  |  |  |  |  |  | H (H shows more than 50% of control values) | H (H shows more than 50% of control values) | L (L shows 50% or less of control values) | H (H shows more than 50% of control values) | L (L shows 50% or less of control values) | H (key: H shows more than 50% of control values; L shows 50% or less of control values) |
| COc1cc(F)c(-c2c(-c3cc(F)cc(F)c3Br)cc(Br)c(=O)n2C)c(F)c1 [Compound 825] |  |  |  |  |  |  | H (H shows more than 50% of control values) | H (H shows more than 50% of control values) | H (H shows more than 50% of control values) | H (H shows more than 50% of control values) | H (H shows more than 50% of control values) | H (key: H shows more than 50% of control values; L shows 50% or less of control values) |
